Reference: the supplement of paper PMC11417369
± gives the standard deviation of the averaged measurements. The list shows a part of the results.

system: PfAP2-G AP2 domain (GST-tagged); assay: gcPBM binding intensity (ln(normalized median fluorescence intensity)); higher = stronger DNA binding
In short: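 Binding intensity is the highest Masliner-normalised natural-log median intensity over replicate spots in either probe orientation. To obtain it, GST-tagged P. falciparum DNA-binding domains made in E. coli were incubated for 1 h on an Agilent 4 × 180k array of primer-extended double-stranded 36-bp intergenic genomic probes plus negative controls. Detection used Alexa488 anti-GST antibody with scanning at 488 nm.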

Sequence	gcPBM binding intensity (ln)
AAAAAAAAAAAAAAAAGTACATGCCATATATTTTCA [XGTACX_site4580]	11.6 ± 0.83
TTTTAAGAAAAAAAATGTACACATGAAAATAGTGAA [XGTACX_site5898]	11.4 ± 0.77
AAATTTTCACTTCAAAAACACACGTATTTTTTTCCT [CACACA_site3813]	10.115 ± 0.007
TGTTATATTATAACTACACACGTATTATGTTATATC [CACACA_site839]	10.5 ± 0.29
TATATATAAGAAAAAAGTACAGATATATATATATTC [XGTACX_site4788]	11.6 ± 1.1
TATACAGACAGACACACACACATATATATATATATA [CACACA_site1734]	10.2 ± 0.24
AGAACTTAATGCTGCACACAAAAAAAAGGAAAAATA [CACACA_site1353]	10.1 ± 0.42
TTCTTTAAAATGATATACGTTATAAATATATATATA [XGTACX_negctrl_site256]	9.99 ± 0.2
AACTTGTATATATACACACACACACTGTCTTTTTTT [CACACA_site1963]	10.08 ± 0.014
TGATCACATAATAAATGTACAAAAAAAAATTAATAA [XGTACX_site5867]	10.9 ± 0.48
AAAAAAAAGTTGTAAGTGCATGTATATAATAATATT	9.89 ± 0.14
TAAGGAAGAAGAAAAAGTACTAAAGGTATAAATGCG [XGTACX_site2628]	11 ± 0.54
TTTAGATAATTCATTACACACATGTATATATATATA [CACACA_site3483]	10.1 ± 0.33
AAAAAAAAAATATATTGTACAATATTGTAGCTATAT [XGTACX_site7180]	10.8 ± 0.47
TTCAATAGTAAGTATACACACATATAAATAAATAAA [CACACA_site7295]	10.2 ± 0.21
TTTTTATTGTTGCTATATTTATAACAATTTATCATA [GTGCAC_negctrl_site75]	9.7 ± 0.11
GCAACCTTGTGCAAATGTACAAAAAAAAAAAAAAAA [XGTACX_site679]	10.6 ± 0.79
TTTTTGTTATTTTTAGTGCAGAAGAATAAATTTTAA	10 ± 0.17
AAAATTTCTTATTTTGTACACACAATAAATATTCAC [CACACA_site8464]	11.1 ± 0.65
CAATTTATAAAGAAAACACACATATACATAAATACA [CACACA_site4829]	10.2 ± 0.16
TATAAATTAAAACATTGTACATTTTTATTATTATGT [XGTACX_site579]	10.8 ± 0.47
TATCTTACTTTTTGCACACACTAATATTATTGTTTA [CACACA_site4990]	10.3 ± 0.21
AAAATTAATATCTTGGTGCATTTTTTAATATTATTA [GTGCAC_site9638]	9.96 ± 0.071

Sequence	gcPBM binding intensity (ln)
ACAACTATTCATCATAGTACACGCATGATATATATA [XGTACX_site1539]	10.9 ± 0.53
TATATATATGGACACACACACATATATATATATTTT [CACACA_site5409]	10.9 ± 0.71
TATATATAATATAGTGCATGTAAAAAATAAACCATG [TGCATGCA_site932]	10.2 ± 0.16
TTTTTTTTTTAAATGTGTCCTCATTATAATATATGT [XGTACX_site5331]	11.2 ± 0.93
TTTTTTAAATTATATTATAGCAAATAAATATTAAAA [CACACA_negctrl_site1655]	9.81 ± 0.28
TAATTATGCGGACACACACACACACCCAACTAAAAA [CACACA_site5427]	11.4 ± 0.86
GCATTATTATATATTTGTACATATTTTTTTTTAAAA [XGTACX_site5436]	11.2 ± 0.64
ATGTCACAATTTTTCACACACAAAATTTAAATACAT [CACACA_site5168]	10.3 ± 0.17
TATTATTATATATATAGTACATAAAATATAAAAAAA [XGTACX_site2060]	11 ± 0.69
TCAAATTTTCAACATTGTACATAAATGTATAAATAT [XGTACX_site6042]	10.8 ± 0.57
CAAAATATATATGACACACACAAAAAAAGTATATTA [CACACA_site1589]	10.24 ± 0.042
AATTATATATAAAGAAGTACTATTTCAAGGAGTTTT [XGTACX_site3837]	11.1 ± 0.61
CTAAACCTTTTGAGCACACATATATATATATATATA [CACACA_site1782]	10.7 ± 0.88
TTCGCTGTTTTAATTAGTACTTATATATAATATTAT [XGTACX_site1149]	11 ± 0.47
TATTGATATATATATATATATATATGTATATACTTA [GTGCAC_negctrl_site111]	9.62 ± 0.12
TTTTTATATAAGAAAAAATTATAACAATTTGTTAAT [XGTACX_negctrl_site422]	9.76 ± 0.24
TTTTTATTTTCATATGTGCACTTATATATATATATA	10.5 ± 0.34
TATTATAGTCCGACTTTTTAATTTCTTTATTGTTTT [CACACA_negctrl_site1381]	10.8 ± 0.4
TGAATATTCATATGCACACAAATTAATATACATAAT [CACACA_site442]	10.11 ± 0.071
TTTTATTTTTAAAATTGTACATTATTATTGTTATTT [XGTACX_site1439]	10.8 ± 0.46
AAATTTTAATTAGACTGTACACATTTTAGAATAATT [XGTACX_site4819]	11.6 ± 0.92
TTTTATGTTTTAAAATGTACGTGTCAATGAATAAGT [XGTACX_site6239]	11.3 ± 0.91
ACCTTAATTATAATAACACACGAAAAGTGGACACAT [CACACA_site1750]	11.3 ± 0.91

Sequence	gcPBM binding intensity (ln)
TATTTGTTCTGATCCTTTTATTCAACTTTTTTTTTT [CACACA_negctrl_site978]	10.02 ± 0.035
GGCTAAAAGTTGCACACACACAAAAAAAAAAAAAAA [CACACA_site7531]	10.4 ± 0.62
TTGTTCATTATGCACAGTACATAAAAAGTAAAAAAA [XGTACX_site2403]	10.9 ± 0.56
TCATTTATTTTAAGGTGTACCGTTTAAAATCACAAA [XGTACX_site3243]	11 ± 0.8
ATATTGACAAATATTACACACATATATATATATATA [CACACA_site4079]	10 ± 0.2
TATTTTTATAAAAACTGTACATAATAAATAAAAATA [XGTACX_site4743]	11.1 ± 0.62
AATCAAAGTAATTTAACACACAATTTTAATACTGTT [CACACA_site7169]	9.69 ± 0.18
TTATATGTTTCTTCACGTACGTATAAAAATGAACTT [XGTACX_site1764]	11.3 ± 0.72
TATCATGTGCGTGCGTGTACTTAACACACATAATAT [XGTACX_site2404]	11.2 ± 0.95
AATTTACACGTACGTGTACACACAAAAATATGTTTT [CACACA_site8242]	11.8 ± 1
CAGACATTAATAAGTAGTACACAATAATTGACTAGG [XGTACX_site854]	11.6 ± 0.97
TTTTTTTGCGCGGGAAGAATAAAATTTATAGAATAT [TGCATGCA_negctrl_site306]	10.4 ± 0.36
AATGTTTAATATAACGCATGCCTTAATATAGAATGC [TGCATGCA_site463]	9.835 ± 0.021
AGTTTTATGTAGTGTTGTACTTTATACAAATATATA [XGTACX_site990]	11.3 ± 0.79
AGTAATAATATAATTTGTACATATATATATTATAAA [XGTACX_site7138]	10.9 ± 0.61
TACAAAAATGTAGTCACACATATGTATACTTTTATG [CACACA_site5607]	10.3 ± 0.26
ATATATATAATTTAAAGTACATATTTAAGAATGAAA [XGTACX_site2238]	11.1 ± 0.67
TTTCTAATTTATATCACACACATATATAAATAGTAA [CACACA_site6156]	9.98 ± 0.21
ATACACAATTATTTTCCTATTATGCAAGCAAATTTA [CACACA_negctrl_site1176]	10.01 ± 0.021
TGAAAAGATAAAAAATGTACATATATATTATATATA [XGTACX_site5678]	11 ± 0.55
TTTCTAAATAATATACACAAAAAAATAAAACACTAA [TGCATGCA_negctrl_site43]	10.1 ± 0.19
GTACAAAAAAAGTGTACACAAAGTAAGACTTTAATT [CACACA_site5068]	11.7 ± 0.83
CACTGTAAATAGAAAGTGCAAAAATTGTAAATAAAA [GTGCAC_site9980]	10.16 ± 0.099

Sequence	gcPBM binding intensity (ln)
TAAATACATTGACACACACACAAATATGTACATACA [CACACA_site7371]	11.4 ± 0.78
ACTTGATTACACAACCACAAGTAATTGAAATTATTT [XGTACX_negctrl_site297]	10.2 ± 0.18
GTTTAACTGTTTTATACACACAATGTAGACAATAAA [CACACA_site8967]	10.2 ± 0.28
ATATATATAATATATTGTACATATAATATATATATA [XGTACX_site4792]	10.9 ± 0.72
ATAAAAACTACATTCACACAAAAAAAAATCTACAAA [CACACA_site6109]	9.99 ± 0.18
AATAATATTAATAAAAGTACATGTGTAATATATATA [XGTACX_site5922]	11.4 ± 0.88
ATAAAGATAATATATGCACACATATAAATATATAAA [CACACA_site9153]	9.98 ± 0.36
ATATATATATGTTAGGTGCATATATATTTTGTGGAT [GTGCAC_site9964]	10.1 ± 0.35
ACATCTAGGCTTATTTTATGATACATGTGAATATAT [TGCATGCA_negctrl_site325]	9.79 ± 0.099
GTTTTTGAGTAGTACACACACAATAAGGATGGATTC [CACACA_site3192]	11.5 ± 0.97
ATAATTTCTATTTCACAAAAAAAAAAAAAAAAAAAA [CACACA_negctrl_site1012]	9.53 ± 0.29
ACTAAAAGGCTTAAATGTACATATTATATATATATA [XGTACX_site5897]	11.1 ± 0.76
CTTTTTTTTTTGGGGGTGCATGCAAGACATATATTT [GTGCAC_site9660]	11 ± 0.77
ACATAACTTATATATACACACAATACAAATATATAT [CACACA_site2774]	9.955 ± 0.007
TTGTTCTTTTGAAAGGTGCAAAAGAAAAATAATTAA	10.2 ± 0.35
AGAAAACCGAAAGAGACACACAACATGTCGATTTAG [CACACA_site3764]	9.88 ± 0.085
GAATAATTAAAAGGTAGTACAAAGGTTATCAAAAGG [XGTACX_site8496]	11.6 ± 0.93
GATATGATTATGTGATGGTGTTTTTGATAGATATTT [CACACA_negctrl_site1445]	9.89 ± 0.12
TGTGTCAAGTTTAATAAACGCATATAATATATATGA [CACACA_negctrl_site607]	9.68 ± 0.014
TTTAAATTTTTATATTGTACTTTATTTATTTATTTA [XGTACX_site869]	11.2 ± 0.85
